From paper PMC10616113, “Novel 3-phenylquinazolin-2,4(1H,3H)-diones as dual VEGFR-2/c-Met-TK inhibitors: design, synthesis, and biological evaluation” (Scientific Reports, 2023)

How the values were obtained:
[1] = test system: HCT-116 colon cancer cell line; test: Cell cycle analysis by flow cytometry; details: HCT-116 cells treated at IC50 concentration
[2] = test system: HCT-116 colorectal cancer cell line; test: MTT cytotoxicity assay against HCT-116; type: cell-based; details: Homo sapiens, HCT116 cell line
Procedure: HCT-116 colorectal cancer cell line is characterized by overexpression of both VEGFR-2 and c-Met TKs. Consequently, we selected it to study the cytotoxic activity of the target derivatives. We tested the effect of several concentrations of the designed derivatives on HCT-116 cells by using MTT assay.
Cell Line cells were obtained from American Type Culture Collection , cells were cultured using DMEM (Invitrogen/Life Technologies) supplemented with 10% FBS (Hyclone), 10 ug/ml of insulin (Sigma), and 1% penicillin-streptomycin. All the other chemicals and reagents were from Sigma, or Invitrogen. Plate cells (cells density 1.2 – 1.8 × 10,000 cells/well) in a volume of 100µl complete growth medium + 100 μl of the tested compound per well in a 96-well plate for 24 hours before the MTT assay .
8-After treatment of cells with the serial concentrations of the compound to be tested incubation is carried out for 48 h at 37 °C ,then the plates are to be examined under the inverted microscope and proceed for the MTT assay
The MTT method of monitoring in vitro cytotoxicity is
well suited for use with multiwell plates. For best results, cells in the log phase of growth should be employed and final cell number should not exceed 10^6 cells/cm2. Each test should include a blank containing complete medium without cells.
2. Reconstitute each vial of MTT [M-5655] to be used with 3 ml of medium or balanced salt solution without phenol red and serum. Add reconstituted MTT in an amount equal to 10% of the culture medium volume.
3. Return cultures to incubator for 2-4 hours depending on cell type and maximum cell density. (An incubation period of 2 hours is generally adequate but may be lengthened for low cell densities or cells with lower metabolic activity.) Incubation times should be consistent when making comparisons.
4. After the incubation period, remove cultures from incubator and dissolve the resulting formazan crystals by adding an amount of MTT Solubilization Solution [M-8910] equal to the original culture medium volume.
6. Spectrophotometrically measure absorbance at a wavelength of 570 nm. Measure the background absorbance of multiwell plates at 690 nm and subtract from the 450 nm measurement. Tests performed in multiwell plates can be read using the appropriate type of plate

VEGFR-2 [3] = target: T1, VEGFR-2 (Homo sapiens, UniProt P35968); test: In vitro enzyme inhibition of VEGFR-2 TK
c-Met [4] = target: T2, c-Met (Homo sapiens, UniProt P08581); test: In vitro enzyme inhibition of c-Met TK
WI38 normal cell line = test: MTT cytotoxicity against WI38 normal cells; details: Homo sapiens, WI-38
HCT-116 cells = test: Apoptosis induction, Annexin V-FITC/PI staining; type: cell-based; details: 24 h
From the text: There was an increase in the number of both early and late apoptotic cells of both tested compounds 3c and 3e. […] . Totally, both designed compounds 3c and 3e were able to induce remarkable apoptosis.

c-Met [5] = target: T2, c-Met; details: reported dual inhibitors with α-HB group, Fig. 2; ref Yang et al, 2022; Gu et al, 2017; cited from earlier work
VEGFR-2 [6] = target: T1, VEGFR-2; details: reported dual inhibitors with α-HB group, Fig. 2; ref Yang et al, 2022; Gu et al, 2017; cited from earlier work

## O=C(NC(=S)Nc1ccc(Cl)cc1)c1ccc(-n2c(=O)[nH]c3ccccc3c2=O)cc1 [Compound 3e, N-((4-chlorophenyl)carbamothioyl)-4-(2,4-dioxo-1,4-dihydroquinazolin-3(2H)-yl) benzamide]
[1]
  %G0–G1: 44.13%
  %G2/M: 26.51%
  %S: 29.36%
other
  melting point: 250 °C
[2]
  IC50: 3400 ± 180 nM
VEGFR-2 [3]
  IC50: 83 ± 5 nM
c-Met [4]
  IC50: 48 ± 3 nM
WI38 normal cell line
  IC50: 11600 ± 690 nM
HCT-116 cells
  %Apoptosis %Early: 21.22%
  %Apoptosis %Total: 35.39%
  %Necrosis: 1.79%

## O=c1[nH]c2ccccc2c(=O)n1-c1ccc(-c2nc(=S)[nH]c(=S)[nH]2)cc1 [Compound 2b, 3-(4-(4,6-dithioxo-1,4,5,6-tetrahydro-1,3,5-triazin-2-yl)phenyl)quinazolin-2,4(1H,3H)-dione]
other
  melting point: > 300 °C
[2]
  IC50: 8810 ± 470 nM
VEGFR-2 [3]
  IC50: 263 ± 15 nM
c-Met [4]
  IC50: 141 ± 8 nM

## CCOC(=O)c1ccc(NC(=S)NC(=O)c2ccc(-n3c(=O)[nH]c4ccccc4c3=O)cc2)cc1 [Compound 3d, Ethyl4-(3-(4-(2,4-dioxo-1,4-dihydroquinazolin-3(2H)-yl)benzoyl)thioureido)benzoate]
other
  melting point: > 300 °C
[2]
  IC50: 2240 ± 120 nM
VEGFR-2 [3]
  IC50: 51 ± 3 nM
c-Met [4]
  IC50: 442 ± 26 nM

## O=C(O)c1cccc(NC(=S)NC(=O)c2ccc(-n3c(=O)[nH]c4ccccc4c3=O)cc2)c1 [Compound 3b, 3-(3-(4-(2,4-dioxo-1,4-dihydroquinazolin-3(2H)-yl)benzoyl)thioureido)benzoic acid]
other
  melting point: > 300 °C
[2]
  IC50: 53400 ± 2820 nM

## COc1cc2nccc(Oc3ccc(NC(=O)C4(C(=O)Nc5ccc(F)cc5)CC4)cc3)c2cc1OC [Cabozantinib, cabozantinib, reference compound]
HCT-116 cells; listed as cabozantinib
  %Apoptosis %Late: 32.13%

## O=c1nc(-c2ccc(-n3c(=O)[nH]c4ccccc4c3=O)cc2)[nH]c(=S)[nH]1 [Compound 2a, 3-(4-(4-oxo-6-thioxo-1,4,5,6-tetrahydro-1,3,5-triazin-2-yl)phenyl)quinazolin-2,4(1H,3H)-dione]
other
  melting point: > 300 °C
[2]
  IC50: 27000 ± 1430 nM

## COCCNC(=O)Nc1nccc(Oc2ccc(NC(=O)c3sc(-c4ccccc4)nc3C)cc2)n1 [II]
c-Met [5]
  IC50: 1430 nM
VEGFR-2 [6]
  IC50: 1050 nM

## O=C(NC(=S)Nc1ccccc1)c1ccc(-n2c(=O)[nH]c3ccccc3c2=O)cc1 [Compound 3a, 4-(2,4-dioxo-1,4-dihydroquinazolin-3(2H)-yl)-N-(phenylcarbamothioyl)benzamide]
other
  melting point: 210 °C
[2]
  IC50: 9380 ± 500 nM

## O=C(NC(=S)Nc1ccc(S(=O)(=O)Nc2ncccn2)cc1)c1ccc(-n2c(=O)[nH]c3ccccc3c2=O)cc1 [Compound 3h, 4-(2,4-dioxo-1,4-dihydroquinazolin-3(2H)-yl)-N-((4-(N-(pyrimidin-2-yl)sulfamoyl)phenyl)carbamothioyl)benzamide]
other
  melting point: 300 °C
[2]
  IC50: 29800 ± 1580 nM

## O=C(NC(=S)Nc1ccc(O)cc1)c1ccc(-n2c(=O)[nH]c3ccccc3c2=O)cc1 [Compound 3g, 4-(2,4-dioxo-1,4-dihydroquinazolin-3(2H)-yl)-N-((4-hydroxyphenyl)carbamothioyl) benzamide]
other
  melting point: 260 °C
[2]
  IC50: 47000 ± 2490 nM

## O=C(NC(=S)Nc1nc2ccccc2s1)c1ccc(-n2c(=O)[nH]c3ccccc3c2=O)cc1 [Compound 4b, N-(benzo[d]thiazol-2-ylcarbamothioyl)-4-(2,4-dioxo-1,4-dihydroquinazolin-3(2H)-yl)benzamide]
other
  melting point: > 300 °C
[2]
  IC50: 20300 ± 1070 nM

## O=C(O)c1ccc(NC(=S)NC(=O)c2ccc(-n3c(=O)[nH]c4ccccc4c3=O)cc2)cc1 [Compound 3c, 4-(3-(4-(2,4-dioxo-1,4-dihydroquinazolin-3(2H)-yl)benzoyl)thioureido)benzoic acid]
[1]
  %G0–G1: 55.41%
  %G2/M: 11.13%
  %S: 33.46%
other
  melting point: 258 °C
VEGFR-2 [3]
  IC50: 138 ± 8 nM
c-Met [4]
  IC50: 74 ± 4 nM
WI38 normal cell line
  IC50: 23800 ± 1410 nM
HCT-116 cells
  %Apoptosis %Early: 9.52%
  %Apoptosis %Late: 19.28%
  %Apoptosis %Total: 28.8%
  %Necrosis: 4.89%

## Cc1c(C(=O)Nc2ccc(Oc3ccnc(C(=O)NCCN4CCCCC4)c3)c(F)c2)c(=O)n(-c2ccccc2)n1C [IV]
c-Met [5]
  IC50: 250 nM
VEGFR-2 [6]
  IC50: 840 nM

## O=C(NC(=S)Nc1nnc(S)s1)c1ccc(-n2c(=O)[nH]c3ccccc3c2=O)cc1 [Compound 4a, 4-(2,4-dioxo-1,4-dihydroquinazolin-3(2H)-yl)-N-((5-mercapto-1,3,4-thiadiazol-2-yl)carbamothioyl)benzamide]
other
  melting point: > 300 °C
[2]
  IC50: 19900 ± 1050 nM

## O=C(NC(=S)Nc1ccc([N+](=O)[O-])cc1)c1ccc(-n2c(=O)[nH]c3ccccc3c2=O)cc1 [Compound 3f, 4-(2,4-dioxo-1,4-dihydroquinazolin-3(2H)-yl)-N-((4-nitrophenyl)carbamothioyl) benzamide]
other
  melting point: 255 °C
[2]
  IC50: 114000 ± 6000 nM

Like-named read-outs stand apart in the source and are kept apart here.
